Experimental data published in a collection of fitness landscapes (doi:10.1126/science.1257360).
Some of the results follow.

B1: PhoQ; a variant is named by its letters at X, in order, P23837 (parent)
chain: MKKLLRLFFPLSLRVRFLLATAAVVLVLSLAYGMVALIGYSVSFDKTTFRLLRGESNLFYTLAKWENNKLHVELPENIDKQSPTMTLIYDENGQLLWAQRDVPWLMKMIQPDWLKSNGFHEIEADVNDTSLLLSGDHSIQQQLQEVREDDDDAEMTHSVAVNVYPATSRMPKLTIVVVDTIPVELKSSYMVWSWFIYVLSANLLLVIPLLWVAAWWSLRPIEALAKEVRELEEHNRELLNPATTRELTSLVRNLNRLLKSERERYDKYRTTLTDLTHSLKTPLXXLQXXLRSLRSEKMSVSDAEPVMLEQISRISQQIGYYLHRASMRGGTLLSRELHPVAPLLDNLTSALNKVYQRKGVNISLDISPEISFVGEQNDFVEVMGNVLDNACKYCLEFVEISARQTDEHLYIVVEDDGPGIPLSKREVIFDRGQRVDTLRPGQGVGLAVAREITEQYEGKIVAGESMLGGARMEVIFGRQHSAPKDE

Variants of: B1
Assay: enrichment ratio after two sorts for PhoP signalling (ratio (wild type AVST 3.29)); higher = more functional
Conditions: with PhoP (E. coli)

Row | Variant | enrichment ratio
1 | NAPL | ≤ 0.25
2 | FPMN | ≤ 0.25
3 | VLYF | ≤ 0.25
4 | GVPA | ≤ 0.25
5 | PRHM | ≤ 0.25
6 | FLVT | ≤ 0.25
7 | YGPH | ≤ 0.25
8 | MHHN | ≤ 0.25
9 | KIGF | ≤ 0.25
10 | HYVD | ≤ 0.25
11 | TESM | 30
12 | MQQF | ≤ 0.25
13 | HEER | ≤ 0.25
14 | DWSN | ≤ 0.25
15 | PNSL | ≤ 0.25
16 | GQWR | ≤ 0.25
17 | SNRS | ≤ 0.25
18 | IYDS | ≤ 0.25
19 | QTIM | ≤ 0.25
20 | YWIH | ≤ 0.25
21 | VREM | ≤ 0.25
22 | VGLS | 5.47
23 | YGHI | ≤ 0.25
24 | LVRW | ≤ 0.25

Row | Variant | enrichment ratio
25 | SQWK | ≤ 0.25
26 | TLFQ | ≤ 0.25
27 | QGYM | 23.9
28 | KFKQ | ≤ 0.25
29 | YFCR | 0.754
30 | AQDH | ≤ 0.25
31 | IDRN | ≤ 0.25
32 | MGNF | ≤ 0.25
33 | EQPR | ≤ 0.25
34 | GWVI | ≤ 0.25
35 | FCRD | ≤ 0.25
36 | LYEI | ≤ 0.25
37 | QPDD | ≤ 0.25
38 | KAVM | ≤ 0.25
39 | NVRT | ≤ 0.25
40 | HRWK | ≤ 0.25
41 | FDDD | ≤ 0.25
42 | WQRN | ≤ 0.25
43 | EVCS | ≤ 0.25
44 | VWDV | ≤ 0.25
45 | PFQQ | ≤ 0.25
46 | AALP | ≤ 0.25
47 | DTQN | ≤ 0.25
48 | IQHK | ≤ 0.25

Row | Variant | enrichment ratio
49 | QDEN | ≤ 0.25
50 | DNRV | ≤ 0.25
51 | MDST | ≤ 0.25
52 | RTAI | ≤ 0.25
53 | WDMQ | ≤ 0.25
54 | RSTY | ≤ 0.25
55 | PMVG | ≤ 0.25
56 | MMLI | ≤ 0.25
57 | SDFQ | ≤ 0.25
58 | FSIM | 11.9
59 | IWCC | ≤ 0.25
60 | IDNP | ≤ 0.25
61 | LSLM | 7.04
62 | FCWR | ≤ 0.25
63 | YIEL | ≤ 0.25
64 | DYPV | ≤ 0.25
65 | AMDF | ≤ 0.25
66 | TNTW | ≤ 0.25
67 | KVTW | ≤ 0.25
68 | ADHM | ≤ 0.25
69 | TCSV | 17.7
70 | ALIR | ≤ 0.25
71 | PFGT | ≤ 0.25
72 | GSCR | ≤ 0.25

Row | Variant | enrichment ratio
73 | DGWI | ≤ 0.25
74 | TVLR | ≤ 0.25
75 | NFRH | ≤ 0.25
76 | VHDG | ≤ 0.25
77 | DGIV | ≤ 0.25
78 | QEAN | 2.7
79 | HMGA | ≤ 0.25
80 | MLYS | ≤ 0.25
81 | EHPL | ≤ 0.25
82 | GKRT | ≤ 0.25
83 | EEEL | ≤ 0.25
84 | YVII | ≤ 0.25
85 | WDWI | ≤ 0.25
86 | LVNN | ≤ 0.25
87 | YVLY | ≤ 0.25
88 | MNII | ≤ 0.25
89 | WWIS | ≤ 0.25
90 | HRVF | ≤ 0.25
91 | HYHR | ≤ 0.25
92 | CIYF | ≤ 0.25
93 | YTED | ≤ 0.25
94 | SWQL | ≤ 0.25
95 | SLFV | ≤ 0.25
96 | ECHQ | ≤ 0.25

Row | Variant | enrichment ratio
97 | SFKH | ≤ 0.25
98 | LGKI | ≤ 0.25
99 | YWQE | ≤ 0.25
100 | AWKR | ≤ 0.25
101 | GEWN | ≤ 0.25
102 | DHAF | ≤ 0.25
103 | KGAR | ≤ 0.25
104 | LQCL | ≤ 0.25
105 | LHQM | ≤ 0.25
106 | FKNR | 1.62
107 | AIYW | ≤ 0.25
108 | ATPE | ≤ 0.25
109 | LHRE | ≤ 0.25
110 | KSAP | ≤ 0.25
111 | PRQV | ≤ 0.25
112 | QMGN | ≤ 0.25
113 | LQCI | ≤ 0.25
114 | TMNF | 14.7
115 | IFRV | ≤ 0.25
116 | MCMI | 4.33
117 | SNQN | ≤ 0.25
118 | NSKF | ≤ 0.25
119 | SNQS | 4.98
120 | VFER | ≤ 0.25

Row | Variant | enrichment ratio
121 | ADNN | ≤ 0.25
122 | IYGI | ≤ 0.25
123 | HLSK | ≤ 0.25
124 | QGDG | 11.8
125 | QQYN | ≤ 0.25
126 | SGSG | 8.15
127 | VQWD | ≤ 0.25
128 | LECV | 5.3
129 | YHNT | ≤ 0.25
130 | RQWV | ≤ 0.25
131 | LWFR | ≤ 0.25
132 | PHWR | ≤ 0.25
133 | KEHG | ≤ 0.25
134 | LPNH | ≤ 0.25
135 | KHAV | ≤ 0.25
136 | QQYL | ≤ 0.25
137 | KTFK | ≤ 0.25
138 | GDTL | ≤ 0.25
139 | LTYT | ≤ 0.25
140 | DMGC | ≤ 0.25
141 | YANS | ≤ 0.25
142 | THFT | 0.545
143 | FASC | ≤ 0.25
144 | KIMK | ≤ 0.25

Row | Variant | enrichment ratio
145 | VMNE | ≤ 0.25
146 | TIVD | ≤ 0.25
147 | NGSK | ≤ 0.25
148 | HFAP | ≤ 0.25
149 | GGHL | ≤ 0.25
150 | RFAA | ≤ 0.25
151 | NMRQ | ≤ 0.25
152 | YNSE | ≤ 0.25
153 | VKHC | ≤ 0.25
154 | HKRT | ≤ 0.25
155 | YYGN | ≤ 0.25
156 | AVRG | ≤ 0.25
157 | HDFN | ≤ 0.25
158 | KVFQ | ≤ 0.25
159 | NGKW | ≤ 0.25
160 | NQDV | ≤ 0.25
161 | EYQF | ≤ 0.25
162 | AMPK | ≤ 0.25
163 | RKIR | ≤ 0.25
164 | FAHW | ≤ 0.25
165 | EVDF | ≤ 0.25
166 | SHLG | 10.8
167 | MNMH | ≤ 0.25
168 | VMRA | ≤ 0.25

Row | Variant | enrichment ratio
169 | KMMP | ≤ 0.25
170 | GFHK | ≤ 0.25
171 | YRIP | ≤ 0.25
172 | TSCA | 15.2
173 | FQSG | ≤ 0.25
174 | ITDV | ≤ 0.25
175 | MAVK | ≤ 0.25
176 | TTVP | ≤ 0.25
177 | VCGE | ≤ 0.25
178 | MTNC | ≤ 0.25
179 | PDYM | ≤ 0.25
180 | FTAW | ≤ 0.25
181 | GPPK | ≤ 0.25
182 | SAYT | ≤ 0.25
183 | AHHI | ≤ 0.25
184 | EGPF | ≤ 0.25
185 | ANYR | ≤ 0.25
186 | TCYQ | 3.33
187 | RPVN | ≤ 0.25
188 | DCLK | ≤ 0.25
189 | NICM | ≤ 0.25
190 | YIGS | ≤ 0.25
191 | DMHH | ≤ 0.25
192 | QARM | ≤ 0.25

Row | Variant | enrichment ratio
193 | WKSE | ≤ 0.25
194 | QCMP | ≤ 0.25
195 | FKPN | ≤ 0.25
196 | TLGF | 12.8
197 | SENC | 10.6
198 | KDEC | ≤ 0.25
199 | YHFL | ≤ 0.25
200 | KCHW | ≤ 0.25
201 | VNMS | 2.24
202 | VPYQ | ≤ 0.25
203 | APTM | ≤ 0.25
204 | WYFD | 6.78
205 | RDCG | ≤ 0.25
206 | QYYT | ≤ 0.25
207 | TRSM | 5.52
208 | KIPN | ≤ 0.25
209 | EEDF | ≤ 0.25
210 | PAHC | ≤ 0.25
211 | FMNM | ≤ 0.25
212 | APLY | ≤ 0.25
213 | MCIR | ≤ 0.25
214 | PCTP | ≤ 0.25
215 | QYVP | ≤ 0.25
216 | PTMT | ≤ 0.25

Row | Variant | enrichment ratio
217 | FVYM | ≤ 0.25
218 | NKLN | ≤ 0.25
219 | NRWG | ≤ 0.25
220 | QISK | ≤ 0.25
221 | MCIE | ≤ 0.25
222 | KHFE | ≤ 0.25
223 | RPIH | ≤ 0.25
224 | AMCP | ≤ 0.25
225 | MPWC | ≤ 0.25
226 | TQWT | 0.56
227 | LMNP | ≤ 0.25
228 | EDLY | ≤ 0.25
229 | YPSH | ≤ 0.25
230 | NRLY | ≤ 0.25
231 | DCSE | ≤ 0.25
232 | VMQR | ≤ 0.25
233 | DCLG | ≤ 0.25
234 | TDHH | ≤ 0.25
235 | TPKF | ≤ 0.25
236 | RYVT | ≤ 0.25
237 | QKQL | ≤ 0.25
238 | MGNH | ≤ 0.25
239 | QKGA | ≤ 0.25
240 | VAAC | ≤ 0.25

Row | Variant | enrichment ratio
241 | IKWC | ≤ 0.25
242 | SYID | ≤ 0.25
243 | VSGS | ≤ 0.25
244 | DHTQ | ≤ 0.25
245 | KHVA | ≤ 0.25
246 | FQLK | ≤ 0.25
247 | ETFP | ≤ 0.25
248 | TTGA | 12.6
249 | RFCK | ≤ 0.25
250 | FGAI | 1.34
251 | DYPF | ≤ 0.25
252 | MPEV | ≤ 0.25
253 | FVCR | ≤ 0.25
254 | QVHV | ≤ 0.25
255 | DLPI | ≤ 0.25
256 | GYAK | ≤ 0.25
257 | VQNH | ≤ 0.25
258 | QAHA | ≤ 0.25
259 | VRTL | ≤ 0.25
260 | TPWH | ≤ 0.25
261 | SSCQ | 13.4
262 | AEIF | 18.6
263 | GQTM | ≤ 0.25
264 | HHCL | ≤ 0.25

Row | Variant | enrichment ratio
265 | LVKY | ≤ 0.25
266 | EDVQ | ≤ 0.25
267 | QPIA | ≤ 0.25
268 | PVIQ | ≤ 0.25
269 | QNLG | ≤ 0.25
270 | LPKG | ≤ 0.25
271 | NYTL | ≤ 0.25
272 | EWAS | ≤ 0.25
273 | PDFV | ≤ 0.25
274 | RVQQ | ≤ 0.25
275 | SDPN | ≤ 0.25
276 | RACF | ≤ 0.25
277 | PDPQ | ≤ 0.25
278 | GDPY | ≤ 0.25
279 | ENCW | ≤ 0.25
280 | HFLQ | ≤ 0.25
281 | PHFY | ≤ 0.25
282 | FALF | 8.88
283 | NYKH | ≤ 0.25
284 | ADVY | ≤ 0.25
285 | VWYC | ≤ 0.25
286 | TIMQ | 5.14
287 | LHHK | ≤ 0.25
288 | TQTM | 22.5

Row | Variant | enrichment ratio
289 | PHPD | ≤ 0.25
290 | SSYH | ≤ 0.25
291 | MHHE | ≤ 0.25
292 | RSVY | ≤ 0.25
293 | GPWR | ≤ 0.25
294 | VIPD | ≤ 0.25
295 | FAMS | ≤ 0.25
296 | WRRY | ≤ 0.25
297 | QDWN | ≤ 0.25
298 | YRYM | ≤ 0.25
299 | TYKP | ≤ 0.25
300 | WEYH | ≤ 0.25
301 | NFAE | ≤ 0.25
302 | KATD | ≤ 0.25
303 | TTTP | ≤ 0.25
304 | FVYN | ≤ 0.25
305 | DNMM | ≤ 0.25
306 | AFYE | ≤ 0.25
